This note sets out measurements from PMC4336329 (PLoS ONE, 2015).

Screen size: about 310,000 compounds; about 2,200 (0.71%) showed an effect of 50% or more. Effects have a minus sign here. The list shows a part of the results.

Sequence of human ether-à-go-go-related gene (hERG) potassium channel (Q12809 whole entry, looked up): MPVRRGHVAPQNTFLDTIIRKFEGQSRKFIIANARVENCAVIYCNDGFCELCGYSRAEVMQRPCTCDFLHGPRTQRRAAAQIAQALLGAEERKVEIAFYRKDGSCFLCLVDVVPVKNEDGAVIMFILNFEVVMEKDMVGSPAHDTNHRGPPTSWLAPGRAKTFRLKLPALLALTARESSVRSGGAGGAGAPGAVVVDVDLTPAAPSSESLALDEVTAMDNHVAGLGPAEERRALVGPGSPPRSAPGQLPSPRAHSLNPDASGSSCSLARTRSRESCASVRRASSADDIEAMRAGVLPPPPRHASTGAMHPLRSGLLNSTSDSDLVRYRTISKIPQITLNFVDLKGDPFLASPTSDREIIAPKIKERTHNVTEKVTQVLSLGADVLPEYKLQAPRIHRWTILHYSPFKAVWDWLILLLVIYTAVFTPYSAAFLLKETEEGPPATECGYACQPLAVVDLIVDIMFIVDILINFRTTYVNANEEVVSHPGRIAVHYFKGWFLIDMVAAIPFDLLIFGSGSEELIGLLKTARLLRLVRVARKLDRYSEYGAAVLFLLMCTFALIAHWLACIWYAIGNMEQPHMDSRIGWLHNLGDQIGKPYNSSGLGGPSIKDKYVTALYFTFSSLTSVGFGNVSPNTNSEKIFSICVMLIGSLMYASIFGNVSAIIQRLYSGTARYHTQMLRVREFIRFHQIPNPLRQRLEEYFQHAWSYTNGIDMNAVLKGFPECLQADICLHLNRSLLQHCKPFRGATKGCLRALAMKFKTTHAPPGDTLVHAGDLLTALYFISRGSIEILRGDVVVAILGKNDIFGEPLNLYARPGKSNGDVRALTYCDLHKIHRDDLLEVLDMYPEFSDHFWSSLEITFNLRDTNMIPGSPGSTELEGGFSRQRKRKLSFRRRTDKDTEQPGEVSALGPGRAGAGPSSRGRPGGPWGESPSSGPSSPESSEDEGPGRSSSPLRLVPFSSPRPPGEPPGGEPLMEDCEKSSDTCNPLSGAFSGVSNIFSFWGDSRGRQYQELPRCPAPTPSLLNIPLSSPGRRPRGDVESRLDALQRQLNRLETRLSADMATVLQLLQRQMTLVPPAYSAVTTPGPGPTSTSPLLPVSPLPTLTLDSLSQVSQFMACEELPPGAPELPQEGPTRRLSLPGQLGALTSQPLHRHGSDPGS

The assay has as its target human ether-à-go-go-related gene (hERG) potassium channel (human, UniProt Q12809). The experiment in a line: primary screen, population patch clamp on CHO cells stably expressing hERG.
Turning to `CC1=C(C(=O)N2CCOCC2)C(c2ccc(-c3ccccc3)cc2)NC(=S)N1` (centres unmarked), the “hERG current change (%, negative = inhibition) at 1uM” value was -4.56%. For `COC(=O)CC1C(=O)NCCN1C(=S)Nc1cccc(C)c1` (centres unmarked) the value was 4.32%; for `Cc1ccc(NC(=O)C2CCN(S(=O)(=O)c3ccc4c(c3)NC(=O)C(C)S4)CC2)c(Cl)c1` (centres unmarked), 13.2%; for `Cc1nc(NC(=O)/C=C/c2ccc(Cl)cc2Cl)sc1C(=O)N(C)C`, 18.8%. Take `CCOc1ccc(CCNC(=O)c2cc3sccc3n2CC)cc1OCC`: the “hERG current change (%, negative = inhibition) at 1uM” value worked out at 14.1%.

For the molecule `O=S(=O)(Nc1ncccn1)c1ccc(NS(=O)(=O)c2cccc(Cl)c2Cl)cc1`, the “hERG current change (%, negative = inhibition) at 1uM” value was 29.5%. Take `O=S(=O)(c1ccc(-c2ccccn2)s1)N1CCC2(CC1)OCCO2`: the “hERG current change (%, negative = inhibition) at 1uM” value is given as 7.7%. For `COC(=O)N/N=C/c1ccc(OCCSc2ccc(Cl)cc2)c(OC)c1` the value was 1.07%; for `O=C(COC(=O)CCC(=O)c1ccc2c(c1)OCCO2)NCc1ccc2c(c1)OCO2`, 16.3%; for `O=C(NCc1ccccc1)c1ccccc1Br`, 1.52%. For `CN(C)CCNC(=O)c1c(CSc2ccccc2)noc1C(=O)NCc1ccccc1` the value was 8.93%; for `CC(=O)c1nnn(-c2ccc([N+](=O)[O-])cc2)c1C`, 5.63%; for `O=C(CC1SC(=Nc2ccc(OC(F)F)cc2)N(CCC2=CCCCC2)C1=O)Nc1ccccc1F` (centres unmarked), 15.3%.

Consider `COc1ccc(OC(C)C(=O)Nc2ccccc2C(F)(F)F)cc1` (centres unmarked), for which the “hERG current change (%, negative = inhibition) at 1uM” value worked out at 8.42%. In the case of `N#C/C=C1\n2c(nc3ccccc32)OC12CCCCC2` it was -15.5%; in that of `CC1(C)Cc2c(cnn2-c2ccccc2)C(NC(=O)CCN2CCCCO2)C1` (centres unmarked), 26.2%; in that of `CN1CCC(NC(=O)NC2CCCCC2)CC1`, 9.81%. In the case of `Cc1nc(C)c(-c2ccnc(/N=C/NO)n2)s1` it was 4.86%; in that of `CC(OC(=O)C1CCCCC1)c1nc2ccccc2[nH]1` (centres unmarked), 13.5%; in that of `Cc1cccc(C(=O)NCCc2ccc(S(N)(=O)=O)cc2)c1[N+](=O)[O-]`, -3.07%.

`O=C(NCCN1C(=O)CCC1=O)c1ccncc1`: the “hERG current change (%, negative = inhibition) at 1uM” value was found to be 3.93%. For `O=C(NN1C(=O)c2ccccc2NC1c1ccc([N+](=O)[O-])o1)c1ccc([N+](=O)[O-])cc1` (centres unmarked) the value was -0.694%; for `C=CCN(C(C)=O)C1CC(=O)N(c2ccc(OCCC)cc2)C1=O` (centres unmarked), 4.41%. As for `COc1ccc(-c2cc(=O)oc3cc(OCC(=O)N4CCOCC4)ccc23)cc1`, the “hERG current change (%, negative = inhibition) at 1uM” value is on record as 0.189%. In the case of `Cc1cccc(NC(=O)N2CCCCCC2)c1C` it was 14.7%. For the molecule `O=C1NC(=O)N(c2ccccc2)C1=O`, the “hERG current change (%, negative = inhibition) at 1uM” value worked out at 8.9%.

Regarding `Cc1cccc(Nc2ccc(NCc3ccccc3)nn2)c1`, the “hERG current change (%, negative = inhibition) at 1uM” value worked out at 2.55%. In the case of `C=CCn1c(SCC(=O)Nc2ccc(C)cc2C)nnc1-c1cccnc1` it was -4.46%; in that of `Cc1noc(C)c1COc1ccccc1C(=O)Nc1ccc(C(N)=O)cc1`, 9.47%; in that of `NC(=O)C1CCN(S(=O)(=O)Cc2ccccc2Cl)CC1`, 7.91%.

Take `COc1ccc(/C=N/c2nc3ccccc3n2CCN2CCCCC2)cc1OC`: the “hERG current change (%, negative = inhibition) at 1uM” value is 10.9%. In the case of `CCOc1ccc(C)cc1S(=O)(=O)NC1CCCCCC1` it was 4.97%; in that of `COc1ccccc1-n1c(-c2ccc(Cl)cc2)c[nH]c1=S`, 9.1%. In the case of `CC1(C)OC(=O)C(=CNc2ncccn2)C(=O)O1` it was 5.28%; in that of `COc1cccc(NC(=S)Nc2cc(C)cc(C)n2)c1`, -7.21%; in that of `NS(=O)(=O)c1ccc(CCNC(=O)CN2CCN(c3ccccc3O)CC2)cc1`, 13.1%.

Turning to `O=C(CSc1nc2c(oc3ccccc32)c(=O)n1CC1CCCO1)NCc1ccccc1` (centres unmarked), the “hERG current change (%, negative = inhibition) at 1uM” value stood at 6.87%.

For the molecule `CC1CCC(C)(NS(=O)(=O)OCC(Cl)(Cl)Cl)CC1` (centres unmarked), the “hERG current change (%, negative = inhibition) at 1uM” value is -5.35%. For `O=C(Nc1ccc(NC(=O)c2ccco2)c(Cl)c1)c1ccc2c(c1)OCCO2` the value was 4.42%. Take `COc1ccccc1C(=O)NCCn1ccc2ccccc21`: the “hERG current change (%, negative = inhibition) at 1uM” value is listed as -3.17%. As to `O=C(O)c1ccc(OC(F)(F)C(F)C(F)(F)F)cc1` (centres unmarked), the “hERG current change (%, negative = inhibition) at 1uM” value is 15%. In the case of `Nc1cccc(S(=O)(=O)Nc2ccc(Br)cc2)c1` it was 8.69%. Turning to `COCCN1C(=O)N[C@@H](c2ccccc2)[C@@H](C(=O)OC)[C@H]1C`, the “hERG current change (%, negative = inhibition) at 1uM” value was 10.9%. In the case of `CCc1ccc(C(C(=O)NC2CCCCC2)N(C(=O)c2ccccn2)c2cccnc2)cc1` (centres unmarked) it was 12.9%.
